{"source": "the supplement of paper PMC11417369", "note": "± gives the standard deviation of the averaged measurements. Some of the results follow.", "data": [{"test_system": "PfAP2-G AP2 domain (GST-tagged)", "assay": "gcPBM binding intensity (ln(normalized median fluorescence intensity)); higher = stronger DNA binding", "how_it_was_run": "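Alexa488 anti-GST antibody, scanned at 488 nm, detected GST-tagged P. falciparum DNA-binding domains that had been expressed in E. coli and incubated for 1 h on an Agilent 4 × 180k array. The array carried primer-extended double-stranded 36-bp intergenic genomic probes and negative controls. Binding intensity is the highest Masliner-normalised natural-log median intensity across replicate spots of either orientation of each probe.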", "values": [{"sequence": "ATTGTGGCAATATATTGTACATGTAATATAAATATA [XGTACX_site5415]", "gcPBM binding intensity (ln)": "11 ± 0.64"}, {"sequence": "TTTGTATAGTTGTAGGTGCATATCATTTTTAAATGT [GTGCAC_site9708]", "gcPBM binding intensity (ln)": "10.2 ± 0.18"}, {"sequence": "TGTTAATAAAGGTGTACACAAAATAAAAAAAATTAT [CACACA_site4288]", "gcPBM binding intensity (ln)": "11.7 ± 0.92"}, {"sequence": "AAGTATGCTTGCTACTTATTAAGTGGCAATATAATT [XGTACX_negctrl_site74]", "gcPBM binding intensity (ln)": "10.1 ± 0.25"}, {"sequence": "TATAATTATATTTGGAGTACAAATTTTTTTTTTTTT [XGTACX_site7494]", "gcPBM binding intensity (ln)": "11.5 ± 0.9"}, {"sequence": "AAAAAAAAAGGTAACGCATGCTTTTAGATTATATTA [TGCATGCA_site398]", "gcPBM binding intensity (ln)": "9.58 ± 0.23"}, {"sequence": "GGACAAAAAAAAAAAATAAAATAAAAATAAATAAAT [XGTACX_negctrl_site106]", "gcPBM binding intensity (ln)": "9.92 ± 0.028"}, {"sequence": "AGAACCATATATAAATGTACATGTTAATATGAATAA [XGTACX_site130]", "gcPBM binding intensity (ln)": "11 ± 0.48"}, {"sequence": "AAAAATTCCAGACACACACACACATATAAATAAATA [CACACA_site1232]", "gcPBM binding intensity (ln)": "10.2 ± 0.43"}, {"sequence": "AAATATATATGAAGATGTACATATATATATGTAAAT [XGTACX_site4039]", "gcPBM binding intensity (ln)": "11.1 ± 0.66"}, {"sequence": "TAACACTTATAAAAAAGTACTGATGAAATAATACTA [XGTACX_site7305]", "gcPBM binding intensity (ln)": "11.1 ± 0.87"}, {"sequence": "AAAAAAACAGTGAATGCACACATTTAAGATCCATAT [CACACA_site3148]", "gcPBM binding intensity (ln)": 9.97}, {"sequence": "TATATTCCCTTAATCACACATAAATAAAAAAAAATA [CACACA_site6094]", "gcPBM binding intensity (ln)": "10 ± 0.37"}, {"sequence": "ATTTATTAAATAAAAAGTACAAAATAAGAAAGAAGA [XGTACX_site6935]", "gcPBM binding intensity (ln)": "11.3 ± 0.79"}, {"sequence": "TTATATATATCTAATTGTACAATATTATGTTCATTA [XGTACX_site7479]", "gcPBM binding intensity (ln)": "10.9 ± 0.49"}, {"sequence": "ATATATAATATAATATGTACATAAAATTTTAACATT [XGTACX_site5773]", "gcPBM binding intensity (ln)": "11.2 ± 0.67"}, {"sequence": "AAAATAATAATAGGCACACATATATATATATATATA [CACACA_site2058]", "gcPBM binding intensity (ln)": "10.1 ± 0.33"}, {"sequence": "TATTTCCTTTTTCTTGTTATTCATGAGAAAAAATGA [CACACA_negctrl_site482]", "gcPBM binding intensity (ln)": "10 ± 0.18"}, {"sequence": "GAAATTTTTAATGTGGTGCACAGGAAATTTTTTCTT", "gcPBM binding intensity (ln)": "10.5 ± 0.33"}, {"sequence": "AAAAAAAAAAAAACTACACACATACAAATATTTATA [CACACA_site5430]", "gcPBM binding intensity (ln)": "9.875 ± 0.035"}, {"sequence": "TACATACATACAGGAGTGCATATATCACAATTATTA", "gcPBM binding intensity (ln)": "10.2 ± 0.18"}, {"sequence": "AGTATACTCGGACACACACACACATATATATATATA [CACACA_site5031]", "gcPBM binding intensity (ln)": "11.1 ± 0.51"}, {"sequence": "AGTTATATGATTAATACACACAACAAATGTTTCTTC [CACACA_site1092]", "gcPBM binding intensity (ln)": "9.82 ± 0.14"}, {"sequence": "AATTTGGTGTGTGTAAAAGTATGTGTCTATATTTAT [GTGCAC_negctrl_site166]", "gcPBM binding intensity (ln)": "10.4 ± 0.23"}, {"sequence": "ATGTATGTTTATTACTATTTTGAGAATAGACTATAA [CACACA_negctrl_site1366]", "gcPBM binding intensity (ln)": "9.855 ± 0.021"}, {"sequence": "TGCAAAAAATTCCACACACACACACCCATATAAATA [CACACA_site1230]", "gcPBM binding intensity (ln)": "10.2 ± 0.2"}, {"sequence": "TCTAAAATAAATAATGCATGTTAAAAAAAAATATAT [TGCATGCA_site562]", "gcPBM binding intensity (ln)": "9.87 ± 0.057"}, {"sequence": "ACGACTAAATATATGAGTACATATATATATAAATAT [XGTACX_site7522]", "gcPBM binding intensity (ln)": "11.4 ± 0.87"}, {"sequence": "AAGAATCATATTTAAACACACATACAGATATATATA [CACACA_site5787]", "gcPBM binding intensity (ln)": "9.78 ± 0.028"}, {"sequence": "CAAATATGTCTTATTCGTACACATATATATATATAT [XGTACX_site8817]", "gcPBM binding intensity (ln)": "11.2 ± 0.77"}, {"sequence": "AAAAATTTGGCATACACACACACACCGACACAGACA [CACACA_site4489]", "gcPBM binding intensity (ln)": "10.4 ± 0.32"}, {"sequence": "GTGCATATAAGGAAGTGTACGAAAAAAAATATTCCA [XGTACX_site8490]", "gcPBM binding intensity (ln)": "11.3 ± 0.79"}, {"sequence": "TTTCTTTATAAATTAATATTCACAACACAAAATATA [CACACA_negctrl_site450]", "gcPBM binding intensity (ln)": "10.2 ± 0.26"}, {"sequence": "AAGAAAATAAAAAATAAGCATAATATGATATGATAT [TGCATGCA_negctrl_site196]", "gcPBM binding intensity (ln)": "9.64 ± 0.3"}, {"sequence": "ATAGAGTCATTCCTCACACACACGCTATATGAATAG [CACACA_site2047]", "gcPBM binding intensity (ln)": "10.1 ± 0.11"}, {"sequence": "TTTATTAATAAGAAATGTACACAAAATTATTTCCAA [XGTACX_site5970]", "gcPBM binding intensity (ln)": "11.5 ± 0.95"}, {"sequence": "GAGAAATTTATACATACACACATATATATATTATAT [CACACA_site4038]", "gcPBM binding intensity (ln)": "10.05 ± 0.071"}, {"sequence": "TATCATGTTTTTATGGTGCATGAAATCACACATTGA", "gcPBM binding intensity (ln)": "9.97 ± 0.13"}, {"sequence": "AATACAAACCAAAAAGTAAATACATCAACATGATCA [CACACA_negctrl_site140]", "gcPBM binding intensity (ln)": "9.72 ± 0.2"}, {"sequence": "TAATTAAAATTAAGAAGTACATTTTACTTTTAATGC [XGTACX_site5120]", "gcPBM binding intensity (ln)": "11.3 ± 0.78"}, {"sequence": "AAAAAATACTTATAAAGTACTAATATATATAAGCAG [XGTACX_site743]", "gcPBM binding intensity (ln)": "10.9 ± 0.48"}, {"sequence": "TCCAAATGTTTGCGTTGTACTCTTTTTTTAAAACTA [XGTACX_site5148]", "gcPBM binding intensity (ln)": "11.5 ± 1"}, {"sequence": "TACACCATGATACATACACACAGACATATACTCATT [CACACA_site4708]", "gcPBM binding intensity (ln)": "10.13 ± 0.028"}, {"sequence": "ATTCCTCCCATGGAATGTACTCATCAAATAAATAAA [XGTACX_site6543]", "gcPBM binding intensity (ln)": "11.1 ± 0.84"}, {"sequence": "CCTGAAATTTTATTATGTACATATTATAAAATGATT [XGTACX_site1434]", "gcPBM binding intensity (ln)": "11.2 ± 0.82"}, {"sequence": "TGGCACTAAAAAAATAAACACACAGATTTATATAAT [CACACA_site8386]", "gcPBM binding intensity (ln)": "9.81 ± 0.18"}, {"sequence": "ATAACCACATAAAATATAATTATATATATATATATA [CACACA_negctrl_site603]", "gcPBM binding intensity (ln)": "9.87 ± 0.26"}, {"sequence": "AAAAAAAAAAAAAAAAAAAAAAATATATATATATAT [XGTACX_negctrl_site33]", "gcPBM binding intensity (ln)": "10.9 ± 0.43"}, {"sequence": "AAGGAATATATATACATACACACATATATATATATA [CACACA_site1665]", "gcPBM binding intensity (ln)": "9.94 ± 0.3"}, {"sequence": "AGTGGATGAGGACATACACACACACCGAAGTTGATA [CACACA_site9132]", "gcPBM binding intensity (ln)": "10.9 ± 0.64"}, {"sequence": "AAATTTTCATGTGTTGCATGCTGAACTATTTTATCA [TGCATGCA_site856]", "gcPBM binding intensity (ln)": "9.875 ± 0.078"}, {"sequence": "AATAAAAAGGAAAGGTATATGTGTGCCCTTGTGTTA [TGCATGCA_negctrl_site83]", "gcPBM binding intensity (ln)": "10.5 ± 0.16"}, {"sequence": "TATTTTTTCCTTTGTTTTTTAAACTATCTTAACTAA [XGTACX_negctrl_site519]", "gcPBM binding intensity (ln)": 9.82}, {"sequence": "AAATAAATAAAAAACACACACAAATAAATAAATATA [CACACA_site2249]", "gcPBM binding intensity (ln)": "9.905 ± 0.078"}, {"sequence": "TTTCTATTTCCTTCACATCTTTTCATCTTTTTTTTT [CACACA_negctrl_site1110]", "gcPBM binding intensity (ln)": "9.9 ± 0.11"}, {"sequence": "GACTTGAAGAAATAAGTGCAGAGTTTTATTTTAATT [GTGCAC_site9912]", "gcPBM binding intensity (ln)": "10.04 ± 0.071"}]}]}
